The results in this text go back to PubChem BioAssay AID463173 (ICCB-Longwood Screening Facility, Harvard Medical School, 2010).

About 4,300 (8.3%) of roughly 52,000 compounds were called active. No stated cut-off is given here; in the data, active means survival mostly below about 52% (no sharp cut-off); inactive means mostly above about 56%. Some of the results follow.

In the assay the test system is DeltatarO mutant. As to the kind of experiment: growth inhibition of S. aureus wild type versus tarO mutant, primary screen, teichoic acid synthesis inhibitors, RN4220, OD600 (AID 463173). The settings on record: OD600, 18 h, active compounds read low, screened at 18.75 µg/mL (by protocol).
Regarding `CCOc1cc(S(=O)(=O)N2CCC(c3nc4ccccc4s3)CC2)c(OCC)cc1S(=O)(=O)N1CCOCC1`, the survival was inactive: 98%. For the compound `COC(=O)C(Sc1nc(C)cc(C)c1C#N)c1ccccc1` (configuration not stated), the survival is inactive: 64%. For the compound `COc1ccccc1Cc1nc2ccccc2nc1SCC(=O)NCCc1ccccc1`, the survival was inactive: 102%.

As for `CCN(CC)CCCNC(=O)c1c(C)oc2ncnc(N3CCOCC3)c12`, the survival was inactive: 124%. Consider `CCc1noc2nc(C)n(CC(=O)O)c(=O)c12`, for which the survival is inactive: 106%.

Take `CCOC(=O)Cn1cc2c(c1-c1ccc(Cl)cc1)c(=O)n(C)c(=O)n2C`: the survival was inactive: 60%. Consider `CN(C(=O)CSc1nc2ccccc2n1CC(=O)NCc1ccc(F)cc1)c1ccc(F)cc1`, for which the survival was inactive: 128%.

As to `CCOc1ccc(CNC(=O)c2ccc(NC(=O)c3nsc4ccccc34)cc2)cc1`, the survival was inactive: 79%.

For `Cc1c(C(=O)NCc2ccc(Cl)cc2)sc2nc3n(c(=O)c12)CCCC3`, the survival is inactive: 95%. The figure for `COc1ccc(-c2cc(C(=O)Nc3cc(C)ccc3O)no2)cc1OC` is inactive: 56%.

As to `CCn1c(=N)c(C(=O)NCc2cccnc2)cc2c(=O)n3cc(C)ccc3nc21`, the survival is inactive: 52%. Take `O=S(=O)(NCC(c1ccco1)N1CCN(c2ccc(F)cc2)CC1)c1ccccc1` (configuration not stated): the survival is inactive: 61%. For `O=C(Cn1c(=O)sc2ccccc21)Nc1nc2c(s1)CCCC2`, the survival was inactive: 75%. Next, `COc1ccc(-c2nc(CSCC(=O)NCCc3ccc(C)cc3)c(C)o2)cc1OC`: inactive: 56%; `CCCCN(C(=O)c1cccc(S(=O)(=O)N2CCCCC2)c1)C1CCS(=O)(=O)C1` (configuration not stated): inactive: 117%. Next, `COCCCNC(=O)c1sc2ncccc2c1-n1cccc1`: inactive: 75%; `COc1ccc(C2CC(=O)c3c([nH]c(C(=O)OC4CCC(C)CC4)c3C)C2)cc1OC` (configuration not stated): inactive: 78%; `O=C(Nc1ccc(F)c(Cl)c1)N1CCN2CCCCC2C1` (configuration not stated): inactive: 69%. `Cc1cccc(-n2c(=O)c3c(c4cc(C)ccc4n3C)n(CC(=O)Nc3ccccc3C(F)(F)F)c2=O)c1`: the survival was inactive: 91%. With `c1ccc(C(c2cccs2)c2c[nH]c3ccccc23)cc1` (configuration not stated), the survival was active: -1%. The figure for `Cc1ccc(-c2noc(CN(C3CCCCC3)S(=O)(=O)c3ccc(Cl)cc3)n2)cc1` is inactive: 81%; for `COc1ccc(-c2nc3n(n2)C(c2ccccc2F)C(C(=O)Nc2cccnc2)=C(C)N3)cc1OC` (configuration not stated) it is inactive: 81%. The figure for `Cc1ccc(CNc2ncnc3c2c(-c2ccccc2)cn3-c2cccc(Cl)c2)cc1` is inactive: 94%. `CCN1C(=O)c2cccc3c(S(=O)(=O)Nc4ccc(O)c(C(=O)O)c4)ccc1c23`: the survival is inactive: 70%. On to `CC(C)(C)OC(=O)N1CCC(c2c(C(=O)N3CCc4ccccc4C3)cnn2-c2ccc(Cl)cc2)CC1`, for which the survival was inactive: 91%. Next, `CCOc1ccccc1C(=O)N(Cc1ccc(N(C)C)cc1)CC1CCCO1` (configuration not stated): inactive: 54%. Next, `CCOc1ccc2[nH]c(=O)c(CN(CCOC)C(=O)Nc3ccccc3C)cc2c1`: inactive: 67%; `Cc1cc(C)cc(C(=O)N2CC(=O)Nc3ccc(C)cc3C2c2ccccc2)c1` (configuration not stated): inactive: 72%. In the case of `CCCCNC(=O)CSc1nc2cc3c(cc2c(=O)n1CCCC(=O)NCc1ccc2c(c1)OCO2)OCO3`, the survival is inactive: 80%. Consider `COc1ccc(NCc2ccccc2-c2nnc(-c3ccccc3)o2)cc1Cl`, for which the survival was inactive: 86%. On to `Cc1ccc2cccc(NC(=O)c3cccc4ccccc34)c2n1`, for which the survival was active: -2%. With `CCc1cccc2sc(N3CCN(C(=O)C4CC4)CC3)nc12`, the survival is inactive: 94%. Next, `Cc1cc(NC(c2nnc(-c3ccccc3)o2)c2ccccc2F)ccc1Br` (configuration not stated): inactive: 40%; `Cc1sc2nc(SCC(=O)N(CCO)CCO)n(C3CCCCC3)c(=O)c2c1C`: inactive: 51%; `Cc1nn(C(=O)c2ccccc2F)c(C)c1S(=O)(=O)N1CCOCC1`: inactive: 84%.

For the compound `COc1ccc(Nc2ncnc3c2cnn3-c2ccc(C)cc2C)cc1`, the survival is inactive: 93%.

Regarding `c1ccc(NCc2ccncc2)cc1`, the survival is inactive: 83%. Next, `Cc1ccc(CNC(=O)CSc2ncc(S(=O)(=O)c3ccc(Br)cc3)c(=O)[nH]2)cc1`: inactive: 125%; `Nc1c(C(=O)Nc2ccccc2Cl)c2ccccn2c1C(=O)c1ccc(Cl)cc1`: inactive: 80%.

`COc1ccc(NC(=O)CSc2nc3c([nH]c4ccccc43)c(=O)n2C)cc1`: the survival was inactive: 74%. The figure for `CCc1nn(CC(=O)NCCC(C)C)c(=O)c2cc3occc3n12` is inactive: 125%. As to `CCn1c(C)c(C2N3CC4(C)CN2CC(CC)(C3)C4=O)c2ccccc21` (configuration not stated), the survival is inactive: 108%. Turning to `COc1ccc(NS(=O)(=O)c2ccc3c(c2)C(C(C)C)C(=O)N3)cc1` (configuration not stated), the survival was inactive: 71%. Next, `Cc1ccc(CNC(=O)C(=O)NCC(c2cccs2)S(=O)(=O)c2ccc(C)cc2)cc1` (configuration not stated): inactive: 98%; `COC(=O)c1sccc1S(=O)(=O)N(CC(=O)NCc1ccccc1)c1ccccc1`: inactive: 65%. Next, `CCn1c(=O)c2cc(C(=O)N(CCCOC(C)C)Cc3ccco3)sc2c2ccccc21`: active: 8%; `O=C(Cn1nnc(-c2cccs2)n1)NC1CC1`: inactive: 96%; `Cc1ccc(-c2sc(C(=O)Nc3ccc(Br)cc3)cc2CC(=O)O)cc1`: inactive: 49%. On to `Cc1cc(C)c(NC(=O)Cn2c(SCC(=O)NCc3ccccc3)nc3ccccc32)c(C)c1`, for which the survival was inactive: 88%.

As to `Nc1cnn(C2CCCO2)c(=O)n1` (configuration not stated), the survival is inactive: 78%. Consider `CCOc1ccccc1NS(=O)(=O)c1c(C)nc2sccn2c1=O`, for which the survival is inactive: 63%. Next, `Cc1ccc(S(=O)(=O)Nc2cccc(C)c2)cc1`: inactive: 83%.

On to `COc1ccccc1C(=O)Nc1ccc2nc(N3CCC(C)CC3)cc(C)c2c1`, for which the survival was active: 3%. Next, `CC(=O)c1cccc(NC(=O)Cn2c(=O)c(CNc3ccc(C)cc3)cc3cc4c(cc32)OCCO4)c1`: inactive: 91%; `O=C(CN1CCCC1)N/N=C/c1ccc(-c2cccc(Cl)c2Cl)o1`: inactive: 86%.

With `Cc1ccc(-n2nc3c(=O)n(CCCC(=O)NCCc4ccccc4)nc(C)c3c2C)cc1`, the survival is inactive: 112%. Turning to `CC(C)c1nc2ccc(C(=O)NCc3ccc(N(C)C)cc3)cc2o1`, the survival is inactive: 85%.

Turning to `CCOC(=O)N1CCN(c2ncnc3c2cnn3-c2ccccc2)CC1`, the survival was inactive: 59%. Next, `Cc1cccc(CCNC(=O)CCS(=O)(=O)c2cc3c(cc2Cl)NC(=O)CO3)c1`: inactive: 95%. Take `COc1cccc(CNC(=O)C2CCN(S(=O)(=O)c3ccc4c(ccn4C)c3)CC2)c1`: the survival is inactive: 81%. As to `COc1ccc(-c2cn3cccnc3n2)cc1NC(=O)c1c(F)cccc1F`, the survival is inactive: 83%. The figure for `CSc1ccc(C2c3[nH]c4ccccc4c3CCN2C(=O)CCc2ccccc2)cc1` (configuration not stated) is inactive: 87%; for `CCC(=O)NC1CCC(c2ccccc2)CC1` (configuration not stated) it is inactive: 97%; for `COc1cc(Cl)c(C)cc1NC(=O)CCn1c(=O)c2cccn2c2cccnc21` it is inactive: 83%.

With `Cc1ccc(N2CC(c3nnc(NC(=O)c4ccco4)s3)CC2=O)cc1Cl` (configuration not stated), the survival was inactive: 77%. The figure for `O=S(=O)(c1ccc(Br)cc1)c1nnn2c1nc(NC1CCCCCC1)c1sccc12` is inactive: 63%; for `CCN1CCN(C(c2cccc(F)c2)c2c(O)cc(C)n(CCOC)c2=O)CC1` (configuration not stated) it is inactive: 73%; for `COc1ccc(Cl)cc1NC(=O)c1cc(S(=O)(=O)N2CCC(C)CC2)cn1C` it is inactive: 83%. As to `CCc1nc2cccnc2n1-c1ccc(CC(=O)Nc2ccccc2Cl)cc1`, the survival was inactive: 67%. As to `CCOc1ccc(CNC(=O)CCC(=O)N2CC3CCCN3c3ccccc32)cc1` (configuration not stated), the survival is inactive: 92%. For `Cc1cccc(NC(=O)CSc2nc3c(oc4ccccc43)c(=O)n2Cc2ccco2)c1`, the survival was inactive: 61%. With `CC(C)C(=O)Nc1ccc2nc(SCC(=O)N3CCOCC3)sc2c1`, the survival is inactive: 81%.

For the compound `Cc1cc(NS(=O)(=O)c2ccc3nc(-c4ccccc4)[nH]c3c2)ccc1Br`, the survival is active: -2%. The figure for `CN(C)c1nc2ccc(OCCN3CCCCC3)cc2s1` is inactive: 87%; for `COc1ccccc1-c1noc(CSc2nnc(Cc3ccccc3)n2-c2ccc(C)c(C)c2)n1` it is inactive: 48%; for `Cc1ccc(C)n1-c1nnc(N2CCC(C(=O)NCc3ccc(F)cc3)CC2)s1` it is inactive: 104%. The figure for `O=C(Nc1cc(Cl)ccc1Cl)c1cc(S(=O)(=O)NCCc2ccccc2)ccc1F` is inactive: 128%; for `Cc1ccc(CN2COc3ccc4c(C)cc(=O)oc4c3C2)cc1` it is inactive: 69%; for `Cc1nc(N2CCOCC2)c2c(C(=O)N3CCN(c4ccccc4F)CC3)c(C)oc2n1` it is inactive: 101%. Next, `Cc1ccc(C(=O)N(Cc2ccco2)Cc2sccc2C)cc1`: inactive: 44%; `O=C(NCc1ccc(Cl)cc1)c1cc2c(s1)-c1ccccc1SC2`: inactive: 58%. For the compound `COc1ccc(-c2nc3c(c(SCC(=O)Nc4cccc(O)c4)n2)Cc2c(CO)cnc(C)c2O3)cc1`, the survival is inactive: 108%. The figure for `CC1CCc2onc(C(=O)N3CCN(c4ccccc4)CC3)c2C1` (configuration not stated) is inactive: 117%; for `O=C(COc1ccccc1F)Nc1ccccc1C(=O)OCc1cc(=O)n2nc(C3CC3)sc2n1` it is inactive: 88%; for `COC(=O)COc1ccc(C2C(C(=O)OC)=C(C)NC3=C2C(=O)c2ccccc23)cc1OC` (configuration not stated) it is active: 29%. Next, `Cn1nnnc1SCCCNCc1ccc(Cl)cc1`: inactive: 68%.

As to `COC(=O)c1cc(NC(=O)CCc2c(C)nc3c(c(C)nn3C(C)(C)C)c2C)cc(C(=O)OC)c1`, the survival was inactive: 77%. In the case of `COc1ccc(Nc2oc(-c3ccc(COc4cccc(C)c4)o3)nc2C#N)cc1`, the survival was inactive: 109%. The figure for `COc1ccc(CCNC(=O)Cc2c(C)c3cc4c(C(C)(C)C)coc4c(C)c3oc2=O)cc1OC` is inactive: 62%; for `CCN(CC)CC#CC1(O)CCCCC1` it is inactive: 117%. In the case of `Cc1cc(C)c2c(c1)NC(=O)C2(O)c1c[nH]c2ccccc12` (configuration not stated), the survival is inactive: 77%. In the case of `Cc1cccc(S(=O)(=O)Nc2cccc(-c3ccc(N4CCCCC4)nn3)c2)c1`, the survival was inactive: 84%.
